# Measurements taken from patent US20110083201.
# What was measured:
# [1] = system: T1, serpina3n-HA secreted by stably transfected Jurkat cells (clone SerE12-HA), in conditioned medium
# T1 sequence: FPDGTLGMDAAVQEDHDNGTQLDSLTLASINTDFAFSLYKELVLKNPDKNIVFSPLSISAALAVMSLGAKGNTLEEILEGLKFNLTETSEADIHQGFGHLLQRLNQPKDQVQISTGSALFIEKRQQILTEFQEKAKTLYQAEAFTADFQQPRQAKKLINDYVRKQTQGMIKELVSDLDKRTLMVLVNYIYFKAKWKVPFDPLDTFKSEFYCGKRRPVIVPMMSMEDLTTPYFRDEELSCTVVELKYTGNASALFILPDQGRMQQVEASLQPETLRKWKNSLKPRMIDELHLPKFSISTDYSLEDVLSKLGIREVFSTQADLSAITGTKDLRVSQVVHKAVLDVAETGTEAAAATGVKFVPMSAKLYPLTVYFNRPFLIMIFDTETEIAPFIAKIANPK
# [2] = system: T2, mouse serpina3n secreted by Sertoli cells (in Sertoli cell-conditioned medium, SCCM)
# T2 sequence: T1 sequence
substance,measurement,setting,value
human granzyme B purified from the cytolytic granules of YT INDY cells (sequence left out),granzyme B enzymatic activity (cleavage of IEPD-pNA) after pre-incubation with increasing volumes of conditioned medium,[1],SerE12-HA conditioned medium also inhibited granzyme B enzymatic activity in a dose-dependent manner
same,"granzyme B activity (cleavage of IEPD-pNA, absorbance at 405 nm)",[2],significant reduction (83% decrease) of granzyme B activity
